Assay results taken from PubChem BioAssay AID1346428 (National Center for Advancing Translational Sciences (NCATS), 2018).
“And” between values parts separate entries of the source, which are not always exact repeats. Equal values may be shown once. Among all 48,000 compounds or so, about 1,200 (2.5%) were called active. Another 2% or so got no clear call; they are omitted.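 How the source made its calls: active means activation of at least 60% and not above a set upper limit (about 1 call in 100 departs from these limits); inconclusive means activation of 40% to 60%, or above that upper limit; inactive means activation under 40%.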 This is one part of the list.

target: Probable G-protein coupled receptor 32 (Homo sapiens) (UniProt O75388); assay: qHTS for Agonists of Human Resolvin D1 Receptor DRV1; details: CHO-K1 GPR32 beta-arrestin PathHunter luminescence, 90 min; at 76.9 µM; stronger effect = higher value; zero percent set by DMSO-only wells
Method in brief: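 Using DMSO wells as EC0, agonist-induced signal was taken as chemiluminescence from beta-Gal reconstituted upon beta-arrestin recruitment to GPR32 in CHO-K1 cells after 90 min compound treatment.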

UniProt O75388, sequence (O75388 whole entry, looked up): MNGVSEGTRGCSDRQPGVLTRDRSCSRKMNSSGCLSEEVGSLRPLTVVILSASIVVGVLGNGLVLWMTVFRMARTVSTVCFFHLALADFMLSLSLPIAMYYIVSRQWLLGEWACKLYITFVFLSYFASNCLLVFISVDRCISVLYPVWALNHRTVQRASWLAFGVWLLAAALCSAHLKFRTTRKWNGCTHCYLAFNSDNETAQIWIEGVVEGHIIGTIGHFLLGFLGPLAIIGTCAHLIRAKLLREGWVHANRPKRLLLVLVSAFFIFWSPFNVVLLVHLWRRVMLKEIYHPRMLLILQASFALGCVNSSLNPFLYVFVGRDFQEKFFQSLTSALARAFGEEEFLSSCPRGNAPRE

Compound	activation
Cc1sc2ncn(CC(=O)N3CCN(c4ccccc4)CC3)c(=O)c2c1S(=O)(=O)N1CCN(c2ncccn2)CC1	inactive: -20.8%
CC(C(=O)O)c1ccc(CC2CCCC2=O)cc1 (stereo not drawn)	inactive: -8.22% and inactive: -7.31%
CCc1cccc(-n2nnc(-c3nsc(NC(=O)c4ccc(C)cc4)n3)c2C)c1	inactive: -1.5%
CN(CC(=O)Nc1ccc(Cl)cc1F)S(=O)(=O)c1ccc2c(c1)n(C)c(=O)c(=O)n2C	inactive: -2.16%
Fc1ccc(C(Nc2ccccc2Cl)c2nnc(-c3ccccc3Cl)o2)cc1 (stereo not drawn)	inactive: -8.72%
Nc1ncnc2c1ncn2Cc1c(F)cccc1Cl	inactive: 5.02%
CC(C(=O)Nc1ccccc1C(F)(F)F)n1nnc2sc3c(c2c1=O)CCCC3 (stereo not drawn)	inactive: -6.3%
Cc1ccc(NC(=O)[C@H]2O[C@@H]3OC(C)(C)O[C@@H]3[C@H]3OC(C)(C)O[C@H]32)cc1F	inactive: 4.64%
Cc1ccc(NC(=O)c2cccc(N3CCCS3(=O)=O)c2)cc1C	inactive: 39.2%
CCS(=O)(=O)NCC(c1ccco1)N1CCN(c2ccccc2)CC1 (stereo not drawn)	inactive: -17.7%
CCc1ccc(CNC(=O)CSc2c3c(nc4ccc(Cl)cc24)CCCC3)cc1	inactive: -19.4%
O=C(NCCn1cc(SCc2ccccc2F)c2ccccc21)c1cccs1	active: 66.5%
Cc1ccc2c(c1)C(c1ccccc1)N(C(=O)c1ccc(S(=O)(=O)N3CCCCC3)cc1)CC(=O)N2 (stereo not drawn)	inactive: 11.6%
CSc1nc(Nc2ccc(C)cc2)c(C#N)c(-c2ccccc2)n1	inactive: -5.86%
CCOc1ccccc1NC(=O)Cc1csc(COc2cccc(C)c2)n1	inactive: -14.1%
O=C(NCCc1ccc(Cl)cc1)c1ccc(Cn2c(=O)[nH]c3ccccc3c2=O)cc1	inactive: -4.34%
CC(=O)c1cccc(Nc2ncnc3c2cnn3C)c1	inactive: -10.9%
Cc1cccc(NC(=O)CSC2=Nc3ccccc3C3=NC(CCC(=O)NCc4ccc(F)cc4)C(=O)N23)c1 (stereo not drawn)	inactive: -5.25%
CC(=O)c1ccc(NS(=O)(=O)c2cnc(N)nc2)cc1	inactive: -7.53%
COc1ccc2[nH]cc(CCNC(=O)Nc3cccc(F)c3)c2c1	active: 93.2%
CCOc1ccc(CN2C(=O)c3ccccc3Sc3ccc(C(=O)NCCc4ccccc4)cc32)cc1	inactive: -5.32%

Compound	activation
Cc1ccc(-n2c3c(c(=O)[nH]c2=O)C(NS(=O)(=O)c2ccc(C)cc2)(C(F)(F)F)C(=O)N3)cc1 (stereo not drawn)	inactive: -0.151%
COC(=O)c1c(NC(=O)COc2c(C)cccc2C)sc2c1CCCC2	inactive: 5.92%
CC1CCN(S(=O)(=O)c2ccc(C(=O)Nc3nc4ccc(F)cc4s3)cc2)CC1	inactive: -9.02%
CCOc1ccccc1NC(=O)c1cc2cc(C)ccc2n1C	inactive: -27.9%
CCc1ccc(NC(=O)C2CCC(CNS(=O)(=O)c3cccs3)CC2)cc1 (stereo not drawn)	inactive: -6.45%
COc1cccc(CNC(=O)c2ccc3c(c2)N(C)C(=O)C2CCCCN32)c1 (stereo not drawn)	inactive: 7.91%
COc1ccc(-c2nc(SCC(=O)Nc3ccc4c(c3)OCO4)c(-c3ccccc3)[nH]2)cc1	inactive: -16.7%
COc1ccccc1NC(=O)C1=C(C)Nc2nc(-c3ccco3)nn2C1c1ccccc1 (stereo not drawn)	inactive: -14.3%
Cc1ccc(CNc2oc(-c3ccc(COc4ccc(Cl)cc4)o3)nc2C#N)cc1	inactive: -16.8%
CNS(=O)(=O)c1cc(-c2nn3c(C)nnc3c3ccccc23)ccc1C	inactive: -5.86%
CCOC(=O)c1c(NC(=O)c2cc(-c3ccc(Cl)cc3)on2)sc2c1CCCC2	inactive: -4.05%
COc1ccc(Nc2nc3c(S(=O)(=O)c4ccc(Br)cc4)nnn3c3ccsc23)c(OC)c1	inactive: -15.4%
CC1CCN(c2cc3c(cc2F)c(=O)c(S(=O)(=O)c2ccc(Cl)cc2)cn3C)CC1	inactive: -4.56%
CCC(=O)N1CCc2cc(Br)cc(S(=O)(=O)N3CCC(C(=O)N(CC)CC)CC3)c21	inactive: -2.53%
CCn1cc(C(=O)N2CCN(c3cc(Cl)ccc3C)CC2)c(=O)c2cc(S(=O)(=O)N3CCOCC3)ccc21	inactive: -3.81%
Cc1ccccc1OCc1cc(=O)n2c(-c3ccccc3)csc2n1	inactive: 31.5%
CC(C)CCNC(=O)c1cn(C)c2ccc(S(=O)(=O)N3CCCC3)cc2c1=O	inactive: -4.35%
CCOc1ccc(-c2cc3nc(C4CCN(C(=O)OC(C)(C)C)CC4)c(C(=O)Nc4ccc(C)c(F)c4)cn3n2)cc1	inactive: 3.65%
Cc1nn(C)c2c1c(C(F)(F)F)cc(=O)n2C(C)C(=O)NCCc1ccc(Cl)cc1 (stereo not drawn)	inactive: -5.92%
Cc1c(-c2cccc(NC(=O)c3ccc(F)c(F)c3)c2)nc2ncccn12	active: 64.1%
COCCOC(=O)c1c(C)oc2c1cc(NS(=O)(=O)c1ccc(Cl)c(C)c1)c1ccccc12	inactive: 34.5%

Compound	activation
CCc1ccccc1NS(=O)(=O)c1ccc2oc(=O)c3ncn(C)c3c2c1	inactive: -23.8%
COc1ccc(OCc2ccc(-c3nc(C#N)c(NCc4ccccc4)o3)o2)cc1	inactive: -26.7%
N#Cc1ccc(C(=O)Nc2ccccc2-c2nc3ccccc3s2)c(F)c1	inactive: -7.93%
Cc1ccc(Oc2coc3cc(OCC(=O)NC4CCCCC4)ccc3c2=O)cc1	inactive: 1.5%
CCOC(=O)Cc1ccc(NC(=O)n2ncc3cc(Cl)ccc32)cc1	inactive: 7.61%
CNS(=O)(=O)c1ccc(NC(=O)c2cnn3c(C(F)F)cc(-c4ccccc4)nc23)cc1	inactive: -0.0428%
CCOC(=O)c1cnc2c(Cl)c(Cl)ccc2c1NCCN1CCOCC1	inactive: -7.38%
O=C(Nc1ccc(F)cc1Cl)C1CCN(c2ncnc3c2nc2n3CCCCC2)CC1	inactive: -1.1%
CN(C1CCCCC1)S(=O)(=O)c1ccc2c(c1)c(=O)c(C(=O)NCc1ccccc1Cl)cn2C	inactive: 8.76%
Cc1ccc(NC(=O)c2c(C)oc3ccc(O)c(CN4CCCC4)c23)c(C)c1	inactive: 20%
CCOc1ccc(C2C(C(=O)OC)=C(C)NC3=C2C(=O)c2ccccc23)cc1OC (stereo not drawn)	inactive: -46.8%
CCc1ccc(NC(=O)C2CCCN(c3nn4cc(-c5ccc(OC)cc5)nc4s3)C2)cc1 (stereo not drawn)	inactive: -12.5%
Cc1ccc2onc(CNC(=O)Nc3ccccc3C#N)c2c1	inactive: 10.2%
O=C(NCC(c1ccc2c(c1)OCO2)N1CCN(c2ccc(F)cc2)CC1)c1cccc([N+](=O)[O-])c1 (stereo not drawn)	inactive: -29.8%
c1ccc(C(O[C@H]2CCCN(CCc3ccc4c(c3)OCO4)C2)c2ccccc2)cc1	inactive: -6.55%
COc1ccc(Nc2ncnc3c2c(-c2ccccc2)cn3-c2ccc(C)c(Cl)c2)cc1OC	inactive: 2.72%
CCc1ccccc1NC(=O)CSc1ncccc1C(=O)O	inactive: -5.01%
COc1cccc(CNC(=O)CCc2c(C)nc3c(c2C)c(=O)n(C)c(=O)n3C)c1	inactive: -11.5%
CCn1c2ccccc2c2cc(NC(=O)COc3ccc(C)cc3C)ccc21	inactive: 0.244%
COc1ccc(-c2c(C)c3ccc(O)c(CN4CCOCC4)c3oc2=O)cc1	inactive: -17.3%
COC(=O)c1cc2sc(Cl)cc2n1Cc1c(C)cc(C)cc1C	inactive: -5.69%

Compound	activation
Cc1ccc(Cn2c(CNS(=O)(=O)c3cccc([N+](=O)[O-])c3)nc3cccnc32)cc1	inactive: -28.8%
CCOc1ccc(OCC)c(NS(=O)(=O)c2cc(-c3cnc(C)o3)ccc2OC)c1	inactive: 0%
CCCCNC(=O)C1CCN(S(=O)(=O)CCC)CC1	inactive: -1.55%
COc1ccc(OC)c(CNC(=O)c2ccc(C)c(NC(=O)c3nsc4ccccc34)c2)c1	inactive: -12.7%
CCOC(=O)c1c(-c2ccccc2)csc1NC(=O)c1cc(=O)c2ccc(C)cc2o1	inactive: 9.1%
CCc1nn2c(=O)cc(COC(=O)c3cccc(NC(=O)c4cccs4)c3)nc2s1	inactive: -15.5%
Cc1nc2nncn2c(Nc2ccccc2)c1C	inactive: -12.5%
COc1ccc(OC)c(NC(=O)c2c(N3CCCC3=O)c3cc(OC)ccc3n2C)c1	inactive: 16.1%
CCOC(=O)C1CCN(C(c2ccc(SC)cc2)c2c(O)cc(C)n(Cc3ccco3)c2=O)CC1 (stereo not drawn)	inactive: -15.2%
CCc1cccc(C)c1NC(=O)Cn1cnc2c1c(=O)n(C)c(=O)n2C	inactive: -11.4%
Cc1ccccc1-n1nc(CO)c(C(=O)NCc2cccnc2)n1	inactive: -12.3%
COc1cc(C2NC(=O)c3c(sc4c3CCN(C)C4)N2)cc(Br)c1OC(=O)c1ccc(C)cc1 (stereo not drawn)	inactive: 37.2%
COCCNC(=O)Nc1cc(C(=O)NCc2ccc(C(C)C)cc2)ccc1N1CCCC1	inactive: -25.3%
CCc1ccc(CNC(=O)C(C)n2ccc3cc(S(=O)(=O)N4CCCCCC4)ccc32)cc1 (stereo not drawn)	inactive: 16.5%
COc1ccc(N2CCN(C(=O)CCn3c(=O)[nH]c4cc(OC)c(OC)cc4c3=O)CC2)cc1	inactive: 13.1%
COC(=O)c1c(NC(=O)CCCOc2ccc(C(C)(C)C)cc2)sc2c1C(C(=O)OC)CC2 (stereo not drawn)	inactive: -24.4%
COc1ccccc1N1CCN(c2ncnc3onc(-c4ccc(F)cc4)c23)CC1	inactive: -10.8%
Cc1ccc(NC(=O)C2CCN(S(=O)(=O)c3ccc4[nH]c5c(c4c3)CCCCC5)CC2)cc1	inactive: 4.04%
COc1cccc(C(=O)NCCc2csc(-c3ccc(Cl)cc3)n2)c1	inactive: 47.2%
Cc1cccc(NC(=O)CCS(=O)(=O)c2cccc3nsnc23)c1C	inactive: -14.8%
